Experimental data published in PubChem BioAssay AID1347417 (National Center for Advancing Translational Sciences (NCATS), 2020).
Out of some 120,000 compounds screened, about 5,300 (4.4%) were called active. The inconclusive results got no clear call from the source; some entries with a clear call stand among them for comparison. The call rests on the fitted dose curve; in most records, active means well fitted inhibition curve with a large enough effect; inconclusive means small, poorly fitted or top-dose-only effect; inactive means no such curve, though single readings can be large or run the other way. Potencies beside an inconclusive call are fits to weak or partial responses and may not hold up.
Potency means the concentration at half of the fitted maximal effect; tags describe the fitted curve by direction and shape.

Test: qHTS Primary assay for Inhibitors of Plasmodium falciparum Dd2 growth in vitro; further: nearly all actives have a fitted effect of over 65% in size
Conditions: P. falciparum Dd2 growth, SYBR Green, 72 h; series mostly up to 28.9 µM
Outline: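 Readout: SYBR Green fluorescence, 485 nm excitation, 535 nm emission, after ~16 h lysis at 37C. Before that, Dd2-infected red cells (2.5% hematocrit) grew 72 h with compound, 29 uM top final concentration.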
In the case of `CCCNC(=O)N1CCCC(c2noc(COCC)n2)C1` (centres undefined), the Potency is reported as “inactive”.
For `O=C(NCc1cc2n(n1)CCN(C1CCCCC1)C2)Nc1cccc(F)c1`, the Potency was inconclusive: 14.1 µM [inhibitor, single point].
For `COc1ccc(-c2cc(N3CCC(NC(=O)Cc4ccc(Cl)cc4)CC3)n[nH]2)cc1`, the Potency was “inactive”.
With `O=C(c1ccc(F)c(Cl)c1)N1CCN(C(=O)c2nnn3c2COC(c2ccccc2)C3)CC1` (centres undefined) the Potency was inconclusive: 3.98 µM [inhibitor, single point].
With `CSc1cccc(NC(=O)N[C@H]2CCN(C(=O)C=C(C)C)[C@@H]2C(=O)N[C@@H](Cc2cccs2)C(N)=O)c1` the Potency was “inactive”.
For `CCC1=C(C(=O)OC)C(c2ccccc2)N2C(CC(=O)NCC3CCCO3)=CSC2=N1` (centres undefined), the Potency was inconclusive: 1.26 µM [inhibitor, partial curve, poor fit].
With `CC(C)NC(=O)N[C@H]1C[C@@H](Cc2cc(CN(C)c3ccccc3)on2)C1(C)C` the Potency was inconclusive: 14.1 µM [inhibitor, single point].
With `CCc1cccc(NC(=O)c2cccc3c2C(=O)N(C2CCCCC2)C3)c1` the Potency was inconclusive: 17.8 µM [inhibitor, single point].
With `O=C(NCC(c1cccnc1)N1CCc2ccccc21)C(=O)Nc1ccccc1F` (centres undefined) the Potency was inconclusive: 10 µM [inhibitor, single point].
With `O=C(NCCc1noc(-c2ccccc2)n1)C1CCCCC1` the Potency was “inactive”.
In the case of `O=C(CCN1CCCO1)N[C@@H]1COCC[C@@H]1OCc1ccccc1`, the Potency is reported as “inactive”.
In the case of `CC(=O)N(C1CCOCC1)C1CCN(S(=O)(=O)c2cc(F)ccc2C)CC1`, the Potency is reported as inconclusive: 14.1 µM [inhibitor, partial curve, poor fit].
With `CN(C)c1ccc(CN2CCOC[C@H]2c2ncc(-c3ccncc3)[nH]2)cc1` the Potency was inconclusive: 7.94 µM [inhibitor, partial curve, poor fit].
In the case of `O=C(CN1C(=O)C2(SCC(=O)N2c2ccc(Cl)cc2)c2ccccc21)NCCc1ccccc1` (centres undefined), the Potency is reported as inconclusive: 8.91 µM [inhibitor, single point].
For `O=C(Nc1ccc2c(N3CCCC3)ncnc2c1)c1cccc(F)c1`, the Potency was active: 2 µM.
For `CCOc1ccccc1NC(=O)c1c(NC(=O)c2ccncc2)sc2c1CCC(C(C)(C)C)C2` (centres undefined), the Potency was “inactive”.
With `Cc1ccc(Cn2c(C)c3cnn(CC(=O)N4CCN(c5ccc(F)cc5)CC4)c(=O)c3c2C)cc1` the Potency was inconclusive: 8.91 µM [inhibitor, partial curve].
With `COc1ccccc1CCN1CCCC(CN(C)C(=O)c2cc(C)n(C)c2C)C1` (centres undefined) the Potency was inconclusive: 5.62 µM [inhibitor, partial curve, poor fit].
With `Cc1nc(-c2ccccc2Br)cc([C@H]2CN3CC[C@H]2C[C@@H]3CNC(=O)Nc2ccccc2)n1` the Potency was inconclusive: 2.24 µM [inhibitor, partial curve, poor fit].
For `O=C(Nc1ccc(F)c(Cl)c1)C1=NO[C@@H]2CN(Cc3cccnc3)C[C@H]12`, the Potency was “inactive”.
For `Cc1ccc(C)c(-c2[nH]ncc2CN2CCCC(CO)(CCc3ccccc3)C2)c1` (centres undefined), the Potency was inconclusive: 0.501 µM [inhibitor, full curve, poor fit].
With `Cc1ccc([C@H]2CN(C(=O)C(=O)c3cccn3C)[C@@H]3C4CCN(CC4)[C@H]23)cc1` the Potency was inconclusive: 8.91 µM [inhibitor, single point].
With `CC(C)Oc1ccc(C(=O)Nc2nc3c(s2)CC(C(C)(C)C)CC3)cc1` (centres undefined) the Potency was inconclusive: 4.47 µM [inhibitor, partial curve, poor fit].
For `O=C(NCC(c1ccc2c(c1)OCO2)N1CCN(c2ccccc2)CC1)c1ccccc1` (centres undefined), the Potency was inconclusive: 17.8 µM [inhibitor, single point].
For `CCc1ccc(NC(=O)Nc2cccc(-c3nnc4n3CCCC4)c2)cc1`, the Potency was inconclusive: 4.47 µM [inhibitor, partial curve].
For `Cc1cc(C)c(CNC(=O)c2cc(-c3cnn(C)c3)cc3c2OCCN3C(C)C)c(=O)[nH]1`, the Potency was inconclusive: 1.78 µM [inhibitor, partial curve, poor fit].
With `CC(C)CCN1CCC(N2CCN(C(=O)CCc3ccccc3)CC2)C1=O` (centres undefined) the Potency was “inactive”.
In the case of `COCCN[C@H]1[C@@H]2OC[C@@H](O2)[C@@H](NC(=O)Nc2cccc(C#N)c2)[C@@H]1O`, the Potency is reported as “inactive”.
In the case of `CCOC(=O)N1CCN(Cc2nc3cc(NC(=O)c4ccc([N+](=O)[O-])cc4)ccc3n2C(C)C)CC1`, the Potency is reported as inconclusive: 15.8 µM [inhibitor, single point].
With `CCN(CC)Cc1nc(C2(O)CCN(C3CCN(C(C)=O)CC3)CC2)cs1` the Potency was “inactive”.
For `O=C1N(CC2CCC2)CCCC1(O)CNCC1CCCCC1` (centres undefined), the Potency was inconclusive: 10 µM [inhibitor, single point].
With `Cc1ccccc1Oc1c(CCC(=O)NCC2CC2)c(C)nn1-c1ccc(F)cc1` the Potency was inconclusive: 3.16 µM [inhibitor, full curve, poor fit].
For `Cc1cc(C)cc(C(=O)NCc2nnc3c(-c4nc(C(C)C)no4)cccn23)c1`, the Potency was inconclusive: 2.51 µM [inhibitor, single point].
With `CN(Cc1ccccc1)C(=O)c1ccc2c(c1)NC(C)(COc1ccccc1)CO2` (centres undefined) the Potency was inconclusive: 2.82 µM [inhibitor, full curve, poor fit].
For `COc1ccccc1N1CCN([C@@H]2[C@H](O)[C@H](CO)O[C@@H]2CNCc2cccc(Cl)c2)CC1`, the Potency was inconclusive: 3.98 µM [inhibitor, partial curve, poor fit].
With `O=C(Nc1ccccc1)N1CCC2(CC1)SCC(=O)N2c1ccccc1` the Potency was inconclusive: 3.98 µM [inhibitor, partial curve].
With `COc1ccc2[nH]c(C(=O)N3CCN4CCS(=O)(=O)N(C5CC5)C(=O)C4C3)cc2c1` (centres undefined) the Potency was “inactive”.
For `Cc1cc(Nc2cccc(C(F)(F)F)c2)nc2ccc(NC(=O)c3cccnc3)cc12`, the Potency was active: 3.55 µM.
With `CC(C)NC(=O)C[C@@H]1C[C@H]2O[C@H](CNCc3ccncc3F)[C@@H](O)[C@H]2O1` the Potency was “inactive”.
With `O=C(c1ccsc1)N1CCCCCC1c1nc(-c2cccnc2)no1` (centres undefined) the Potency was inconclusive: 0.316 µM [inhibitor, full curve].
With `O=C(CN1C(=O)NC2(CCS(=O)(=O)CC2)C1=O)Nc1ccc(Br)cc1` the Potency was “inactive”.
For `COc1cc(/C=C/c2nc3cc(Cl)ccc3c(=O)n2-c2ccc(C)cc2C)cc(OC)c1OC`, the Potency was “inactive”.
For `O=C(c1ccccc1)N1CC2(CCNC2)OCc2ccccc21` (centres undefined), the Potency was inconclusive: 8.91 µM [inhibitor, partial curve, poor fit].
With `C=C[C@H]1CN2CC[C@H]1C[C@@H]2CNCc1ccc(-c2ccccc2)cc1` the Potency was inconclusive: 11.2 µM [inhibitor, partial curve, poor fit].
In the case of `CSc1ccc(-c2ccc3c(c2)C(=O)N2CCN(C(=O)C4CCCCC4)C[C@@H]2C(=O)N3)cc1`, the Potency is reported as active: 8.91 µM.
With `CCOC(=O)c1cccc(NC(=O)Nc2ccc3c(c2)N(C)C(=O)c2ccccc2S3)c1` the Potency was inconclusive: 3.98 µM [inhibitor, partial curve, poor fit].
For `CC(=O)N1CCC(C2CCN(Cc3cccc(C)c3)C2)CC1` (centres undefined), the Potency was inconclusive: 11.2 µM [inhibitor, partial curve, poor fit].
In the case of `Cc1cccc(S(=O)(=O)N2CCN(C3CCN(Cc4ccccn4)C3=O)CC2)c1` (centres undefined), the Potency is reported as inconclusive: 20 µM [inhibitor, partial curve, poor fit].
In the case of `O=C1CC(c2ccccc2)N(C(=O)CNS(=O)(=O)c2ccc3c(c2)CCC3)CCCCCN1` (centres undefined), the Potency is reported as inconclusive: 8.91 µM [inhibitor, single point].
In the case of `O=C(NCCn1ccn2nc(-c3ccc(F)cc3)cc2c1=O)c1ccsc1`, the Potency is reported as “inactive”.
For `COc1ccccc1C(=O)NCc1nnc2cc(-c3nc(C)no3)ccn12`, the Potency was “inactive”.
In the case of `CCCOc1ccc(CNC(=O)C(C)C2CCOCC2)cc1` (centres undefined), the Potency is reported as “inactive”.
With `COc1ccc(NC(=O)N2CCCC(c3noc(COc4ccccc4)n3)C2)c(C)c1` (centres undefined) the Potency was inconclusive: 14.1 µM [inhibitor, partial curve, poor fit].
With `O=C(NCCCN1CCN(c2ccccc2F)CC1)C1COc2ccccc2C1` (centres undefined) the Potency was inconclusive: 10 µM [inhibitor, single point].
With `Cc1cc(C)n2c(C(=O)N[C@@H]3COCC[C@@H]3OCc3ccccc3)nnc2n1` the Potency was “inactive”.
With `NCC(=O)N1Cc2ccccc2CC2(CCN(CC3CCCC3)CC2)C1` the Potency was inconclusive: 12.6 µM [inhibitor, partial curve].
For `O=C(C1CCOCC1)N1CCC2(CN[S+](=O)([O-])c3cnccc3O2)C1` (centres undefined), the Potency was “inactive”.
In the case of `CC1=C[C@@H](CNC(=O)CC2(CC(=O)O)CCCC2)[C@H](C(C)C)C[C@H]1Cc1nc2ccc(C)cc2[nH]1`, the Potency is reported as “inactive”.
With `CCOC(=O)N1CCc2c(sc3c2c(=O)n(-c2ccc(CC)cc2)c(=O)n3CC(=O)c2ccccc2)C1` the Potency was inconclusive: 7.08 µM [inhibitor, partial curve, poor fit].
For `Cc1ccc(NC(=O)N2Cc3[nH]cnc3C[C@H]2c2nc(-c3ccc(C)cc3)no2)cc1`, the Potency was inconclusive: 31.6 µM [inhibitor, single point].
For `Cc1c(C(=O)Nc2ccccc2Br)oc2ccc(S(=O)(=O)N3CCOCC3)cc12`, the Potency was “inactive”.
In the case of `CCOc1ccc(CN2CCCCC23Cc2ccccc2CNC3=O)cc1` (centres undefined), the Potency is reported as inconclusive: 10 µM [inhibitor, single point].
With `COc1cccc(C(=O)N2CCC(N3C[C@H](O)C[C@H]3C(=O)N3CCN(c4ccccc4)CC3)CC2)c1` the Potency was inconclusive: 8.91 µM [inhibitor, single point].
For `O=C1COc2ccc(NCCc3ccccn3)nc2CN1Cc1ccc(C(F)(F)F)cc1`, the Potency was inconclusive: 20 µM [inhibitor, single point].
